# This is one part of the list.
# Target: T1, OsWOX13 (Oryza sativa, UniProt Q5QMM3 1-267)
# T1 sequence: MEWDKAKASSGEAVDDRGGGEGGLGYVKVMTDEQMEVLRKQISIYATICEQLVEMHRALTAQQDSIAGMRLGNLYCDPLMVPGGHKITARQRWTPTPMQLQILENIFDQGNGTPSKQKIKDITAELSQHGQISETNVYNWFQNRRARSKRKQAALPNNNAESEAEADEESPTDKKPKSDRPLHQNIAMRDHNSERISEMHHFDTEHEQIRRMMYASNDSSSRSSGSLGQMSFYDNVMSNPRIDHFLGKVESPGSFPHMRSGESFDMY
# Assay: protein-binding microarray (RPBM); PBS, 2% BSA, 51.3 ng/ul salmon testes DNA, 50 uM zinc acetate, 200 nM TF, 25 C, 1 h; high values mean tight binding
# Settings: protein: recombinant; tags: N-terminal polyhistidine and DsRed monomer fusion (pET32a); label: CyDye5-dUTP incorporated in the synthesized complementary strand; 3' TTTTT single-stranded linker to array surface; dsDNA, one strand shown
# Method in brief: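 An Axon 4000B scanner gave the binding signal as per-feature fluorescence intensity in arbitrary units. This followed washing of a custom Agilent array that had been incubated for 1 h at 25 °C with 200 nM protein in PBS, 2% BSA, salmon testes DNA and 50 µM zinc acetate. The proteins were transcription factors fused at the N-terminus to polyhistidine and DsRed, expressed in E. coli BL21-CodonPlus and purified on Ni–NTA.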
row,Sequence,binding signal
1,CTCCATAAGATTATTGGTGATTATAGCTCCGATATATGAGCGGAGTCACCTAGTGCAG,9140 fluorescence intensity (a.u.)
2,ATTAGTTGATTTGCAAATAATTTCCACCGTGGCGTGACAACGGAGTCACCTAGTGCAG,34900 fluorescence intensity (a.u.)
3,ATGCGAGATTGGGTTAAAAGAGATGGAGACAAGGATTTTACGGAGTCACCTAGTGCAG,3430 fluorescence intensity (a.u.)
4,ACTGACATGTGGGCCCAATAATTTATTTTCATTATTTTACCGGAGTCACCTAGTGCAG,3160 fluorescence intensity (a.u.)
5,AAGCGTATCAATCAATCATCAGTGGTATACAAAATTTCCACGGAGTCACCTAGTGCAG,35700 fluorescence intensity (a.u.)
6,GTTCTGTAATTGCAATGCATATTGATACTGAGACTGACTCCGGAGTCACCTAGTGCAG,6650 fluorescence intensity (a.u.)
7,AGAATAGATAGAGTGGTTATATATGTTGATAATCTCGGATCGGAGTCACCTAGTGCAG,4250 fluorescence intensity (a.u.)
8,TCAATTAATCATACGCTAATGGTTAATCTCGTTTTACGTACGGAGTCACCTAGTGCAG,8160 fluorescence intensity (a.u.)
9,TAACTAATCACTCGTTAATGACCTTTCCAGTTTTCCGTATCGGAGTCACCTAGTGCAG,13800 fluorescence intensity (a.u.)
10,CTTAATTAATATAATCGGCAGGAGCTCACTGTTTGTTAACCGGAGTCACCTAGTGCAG,52800 fluorescence intensity (a.u.)
11,CTTGATTATGGCTTCAATTTCATCCGGTGGTATGAATGCCCGGAGTCACCTAGTGCAG,7970 fluorescence intensity (a.u.)
12,ACTAACGGTAATCACATGAGAATCCCGACCTCCCCACCCCCGGAGTCACCTAGTGCAG,5700 fluorescence intensity (a.u.)
13,ATCTAATCAAACCGTAGTTAAATGCAAGTTTTATATAAACCGGAGTCACCTAGTGCAG,4890 fluorescence intensity (a.u.)
14,TGGGATAATTGTGCTCTTACTCTTACTATCGATTTTAATTCGGAGTCACCTAGTGCAG,5310 fluorescence intensity (a.u.)
15,GTCGATCTCATCTATTACTGCAATTTTCAATTAAAAGACTCGGAGTCACCTAGTGCAG,4080 fluorescence intensity (a.u.)
16,AAATTGACATAGCCCCTCTAGTATCCTGCGTGACGCTGATCGGAGTCACCTAGTGCAG,9000 fluorescence intensity (a.u.)
17,TAATAGAATAAATATTCAATCAATGCACTTAAGAGAAACTCGGAGTCACCTAGTGCAG,10900 fluorescence intensity (a.u.)
18,ATCTTCCCCATCATAAATGACTGGCCAATCATTCACAACTCGGAGTCACCTAGTGCAG,9130 fluorescence intensity (a.u.)
19,ATAATAATAAATTTGAACGTGAATTACGCGTTAGATTCATCGGAGTCACCTAGTGCAG,4550 fluorescence intensity (a.u.)
20,GTTAGGGTTTTCTTTTGATTGTCAGGGTTTTCTTTTGATTCGGAGTCACCTAGTGCAG,3960 fluorescence intensity (a.u.)
21,AATCAATCAGCAAGGAGGCATACGTGTATATGAACGAATTCGGAGTCACCTAGTGCAG,12800 fluorescence intensity (a.u.)

row,Sequence,binding signal
1,CACCATTATTGCCAATTATCCTTGCTTGCGTGGTAGAGTACGGAGTCACCTAGTGCAG,26200 fluorescence intensity (a.u.)
2,ATAAATTTATCTGTGTGTCCGTATATCCGATGTGACACGCCGGAGTCACCTAGTGCAG,11800 fluorescence intensity (a.u.)
3,TAAATAATGAGAACCAATCAGGCACAAAAGCATTGGATAACGGAGTCACCTAGTGCAG,12500 fluorescence intensity (a.u.)
4,GTTTGATTATTATTTGCGTTTTGCAGTGTCCGTGATCACACGGAGTCACCTAGTGCAG,31600 fluorescence intensity (a.u.)
5,ATATAATTGATAATAAATCAGGGCATGACATGTCACATATCGGAGTCACCTAGTGCAG,56400 fluorescence intensity (a.u.)
6,ATTGATGGAGGTTTGATTATTATGGTCCAGGTTCATGGTTCGGAGTCACCTAGTGCAG,44200 fluorescence intensity (a.u.)
7,GGTCAATTACCGGTTGATCGAGCATCGTTTCCGAAGAGATCGGAGTCACCTAGTGCAG,14200 fluorescence intensity (a.u.)
8,TGGTTGGTCCATGATTATATATAATGAAACTGTGTGAAAACGGAGTCACCTAGTGCAG,4940 fluorescence intensity (a.u.)
9,ATGATACCCATATTAATTAGGGTGTATATTATTTATTCTACGGAGTCACCTAGTGCAG,3810 fluorescence intensity (a.u.)
10,AGTGATAATTACAGTAATTACTGTTAATTATCATAATTAGCGGAGTCACCTAGTGCAG,45100 fluorescence intensity (a.u.)
11,CTTGTGTTATTCTTATGTAATTGTTTCTATGCTCATAAGACGGAGTCACCTAGTGCAG,5400 fluorescence intensity (a.u.)
12,CATTATTAATTAAATTGGGAAAATATATTGAAACAGAGGGCGGAGTCACCTAGTGCAG,40800 fluorescence intensity (a.u.)
13,GACAATAATATTGTAAATGATTTGTAATTGCTAGTGAGTGCGGAGTCACCTAGTGCAG,25700 fluorescence intensity (a.u.)
14,CATTATAGATTAATACATTTTGGGATGGAGGGAGTACTCACGGAGTCACCTAGTGCAG,3200 fluorescence intensity (a.u.)
15,GTCAATAATCATTTTCTCCACATTCAAGCGCACGGCGAGTCGGAGTCACCTAGTGCAG,3860 fluorescence intensity (a.u.)
16,GGTTGATTAGGGTAGCACTAGCTAGCTGCTGCATTGTTTACGGAGTCACCTAGTGCAG,15100 fluorescence intensity (a.u.)
17,TTTTCCTCATCAAATTGGCTAAATTTTAGTTTGGCGAGTACGGAGTCACCTAGTGCAG,5300 fluorescence intensity (a.u.)
18,GCCTGATTAATTGATTAATTCTCCAGCTGCATCACATTGACGGAGTCACCTAGTGCAG,63700 fluorescence intensity (a.u.)
19,GAAGATGATTGTTTTCGCGTAAGTGGGGTATCTCTGCTAGCGGAGTCACCTAGTGCAG,25000 fluorescence intensity (a.u.)
20,TTTTACACCTCTCCTAAAATTGACAAGTAACACAAACATGCGGAGTCACCTAGTGCAG,3400 fluorescence intensity (a.u.)
21,TGCTAAAATTTTGACAATATTGTTAACTTGCTCTAGTTTACGGAGTCACCTAGTGCAG,6920 fluorescence intensity (a.u.)

# Reference: PMC7819943, “Rice protein-binding microarrays: a tool to detect cis-acting elements near promoter regions in rice”
